# Whole data set: some 4,500 sequences, median “median log2 fold change of GCK-ALFA target abundance (FLAG IP / Myc IP barcode read proportion)” near 0.078, cut for the lowest 2% near -0.6. This is one part of the list.
# B1: GBRAP_160_4148 (protein)
# chain: SEEIKKLIKEIKEIAEEALKLMEGETRENAKVIARVAFGEIVMLVFSNEAVSEETEEKVGEIARKAEEYLDANPDLTVEEIKEILKKAAEEVIKILEEEE
# B2: GBRAP_122_2958 (protein)
# chain: AAEEEALKAALAALEAAADKPLSEIVKTAMEALAKAKSEEAKKKIIEKAAEIISKKVPKVSKEEVLKILEEALKLMEEEGWTAAEAAAYADVEILDLEME
# B3: GBRAP_166_4935 (protein)
# chain: SLEKIYEETKKKVIELAKKALTADEEERIDLAIEIEELLKEAKEKGLTPEQLKEILLEALKELEEDPEVAEFLLRMILAASEMDEELQDVILEALEEFKK
# B4: GBRAP_160_4855 (protein)
# chain: SEKLERALKIIEEEREFALEAVAEAPASQRAAIAEAIALQAVYDLIEEGLITEELEEELLKIVDKLRKELEANADASVEEHKALVEKAFKEMEKKVKELS
# B5: GBRAP_160_4122 (protein)
# chain: KEKELKTAKDNAEDFEETLKEIESLSPEEAATLAEVTLGQAILDFSELDGKFEELEEFSEEKLDELRKTRKEDPEKLKEKSKELLTEARDYYEKKAKELE
# B6: GBRAP_74_6516 (protein)
# chain: QAELLAALEAAAAAGDARAVAELAREIIETGSLEAIERAARIVVAFVEKHRDTLSEEELELLAEVLAELADELMERGGDSEVILAVARAAYELEKLVQAR
# B7: GBRAP_11_2891 (protein)
# chain: KKEKLKKAAELAEELVRVLEELLEKGVDNEELREEALELAEELLELAKKELDEATKKDVEIILELVKKALEDPENAEEYVREALAAARVLEGDLLLELEE
# B8: GBRAP_11_2851 (protein)
# chain: EKEKLKKVKKLAEELIKALEALIAAGTTDEELWKEVEKKLEELKKAVKELGNEFLKELVEQAKEDLEEAKKNPETRLEHVNNALAFARALLGEVLLLLEE
# B9: GBRAP_52_5928 (protein)
# chain: MEERARALAREIFEAAVAGDRERLRALLRRVVEELGPEEIALVIEKLAEITIEAGPEHYDLFAEIMDLLEDEVEEAGKDVDEVQYAIAKAAGKLYDAEQA
# B10: GBRAP_177_5016 (protein)
# chain: LTLEELRAMIEDPNTSAKEAFEALEEAAADITAEEAIELLAEILRKKEMDEEAYKAAARAILTLSEVKGVTLAEVIGYLIEHVEAEKVEAVLEAIAEVRD
# B11: GBRAP_11_2900 (protein)
# chain: KKEKLEKLAKLLEEAIKLLEKILKEGPENKELLEKLLKVAEEALKLAKEVLDESSVELMKELIELIKKAKEDPENAEEYLKKALAVARVLLGQVLLEIEE
# B12: GBRAP_160_4153 (protein)
# chain: SEEIEKLIKEINEIADEAIKMMEGETPEQAKTIARVALGEMLLLVEENEAVSEETEDKIGEVVDATEATLKANPNLTVEEVKALLNEARDKIVKILKEES
# B13: GBRAP_166_4956 (protein)
# chain: SLEEVIEKTKKELKELAEKMKDANPEEQLELYIEMAETLQEAKDAGISREELLELAELALKLVKEAGGDVDHLLGVIEMFVDIDEEELDKLEKIAEEVKK
# B14: GBRAP_128_3240 (protein)
# chain: WDPAVLAEAEALIETIVTGSVEEAREATAALVDLMSTVDLETAEKIAELLIEALKKLSAEKLDAVADTLEENRDKLDPEKATLANDVQIEALNLAEEKEE
# B15: GBRAP_48_5817 (protein)
# chain: MEFDEEKLKKLVEETVEEMYELYKEAKEAGLSEEEILKLVRAELGDLALELEEAGFEKAADYLLERENREEVARRLVEFFDRGELEEAKKYLFEKLKEAE
# B16: GBRAP_52_6279 (protein)
# chain: SEEEVEKVAKEIVELIKEGKLEEAIELARKAAREFSLEEVLRLGELLIKQIAELSPEQLDLALEVMEALAEELERIFGAEEEADILEARAAAAAYQNLQK
# B17: GBRAP_160_4183 (protein)
# chain: SEEIEELKEFIDERFEEAIELIKNETIEERITIVSVEFGQIILEASESESVSDELVDKIAEIEDELVNTMKENPNLTYEETKKLIEEAREKIKKALEEDE
# B18: GBRAP_52_5949 (protein)
# chain: MLEEALKLLKEALEAVLAGKREEARKILRELVEKFDLETIKKAAVELAKSLAGASDEELEAAVELFDMLEEELIEAGVPEEEAELIRGDALAALAKAHAA
# B19: GBRAP_11_2636 (protein)
# chain: KKEKLEEAARKAKEAIEVVERLIEEGVDNEELREELRRLLEELAKLVEEHGDEALKRLVEIAKELFEEAEEDPENREFYLKLLKNTLEILRAELEEEIEE
# B20: GBRAP_160_4357 (protein)
# chain: SERAEKLIKEIREATERVISELGRLSREEVAAIAAGEFGAIAMDAVEDESMPDEVVDIIVEAEDEILRALEELRDASREEVARRIREITERAIKEIKEAA
# B21: GBRAP_35_5597 (protein)
# chain: DTDQLAVDSLIDMIEATIEGIPELPVDTLVSITNLLIKDAEELRKQLKNNVEALERIAKALEKLKEALKKHHGDNPKVQETIEKVEKAIKELKEQAKKAL
# B22: GBRAP_11_2884 (protein)
# chain: DKEKLKKLAKLAEELAKTLEQLLKEGVDNEKLREEAEKLLEELEKLVKEHADEAEKKLAEILKENWEKAKKDPENAEEYVKEALAVAKVLEGQFLLKLEE
# B23: GBRAP_52_5849 (protein)
# chain: SRERARRLAEELVELRLEGREEELEARIRELVETLSEEEVLEILRELAELAKEADPERLEAILEVAELLADAAEEAGFDEDELSYALAEVAAAAYKQLQK
# B24: GBRAP_128_3389 (protein)
# chain: SQEEKVKEAFELIDEIVEADVETARELARELMKLVGTLSLEDQEKVFEYFESKLPELTAEKLEVVADVLREERPKFDPESQLLVAGLEVEALNAAEEKEE
# B25: GBRAP_95_7017 (protein)
# chain: EDDQLAADSLAEVLEGYVELGEEEKAREAAKELVKVVAENPSVKFPSDLSPEAAKIIAEAARETLSKEEAAAVLEKLAADAADPEVKAIAEAALAEVKAE
# B26: GBRAP_53_6413 (protein)
# chain: AEAEIAALRAEVKATARAAAAADEATLAALVAEIGALLAALKAAGMPDEELTALAEEVARTLRAAGAPDSALVALAGHLAALGLEEATAAVAEEAVEELE
# B27: GBRAP_74_6524 (protein)
# chain: MAELLAALRAAAAAGDVAAAVALAREIIATGDLETIEEAAEILVAFVEAHLDALTPEELAALSDTLAELADELMERGGDSEVINAVAAAAVRLEERLAAL
# B28: GBRAP_14_3836 (protein)
# chain: MEEIRKVLEEAAREIARELAELAGLDEEEVRARLLEIVDEALALYEETGDIGEAMDYFERRALALVEELLADKSPELQARAKAIVRVRIGEAILEIEELE
# B29: GBRAP_184_5274 (protein)
# chain: MVRHVEIVAETGEEAIEQVRAAAEEARARGEKLRLTILLRNASVEEIIELFDLLKELREEGVIESAVVGIERELSEEEIDTILKAADEAGVKLVVAISDE
# Target: GABARAP, O95166
# Sequence (O95166 whole entry, the tested form may be a part): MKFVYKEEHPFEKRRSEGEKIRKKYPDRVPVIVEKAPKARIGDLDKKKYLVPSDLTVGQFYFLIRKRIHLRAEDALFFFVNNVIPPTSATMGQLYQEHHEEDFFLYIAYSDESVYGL
# Assay: median log2 fold change of GCK-ALFA target abundance (FLAG IP / Myc IP barcode read proportion) (log2 ratio); each designed protein is fused to an ALFA-tag nanobody in HEK293 cells to bring the named protein to FLAG-tagged glucokinase (GCK); Myc marks an untargeted standard; higher = target protein stabilised (more abundant)
# Conditions: target protein: 3xFLAG-MCP-GCK-ALFA reporter; HEK293 landing pad (RPLP)
# Procedure, shortened: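 Sequencing of reverse-transcribed, amplified circular RNA barcodes from anti-FLAG and anti-Myc immunoprecipitates provided the readout for an ALFA-nanobody-fused binder library recombined into HEK293 landing-pad cells. Those cells were induced with 2 μg mL^−1 doxycycline, transfected with a plasmid expressing a FLAG-tagged target and a Myc-tagged standard, and lysed after 48 h. Target abundance is the per-binder median log2 ratio of FLAG to Myc barcode read proportions. Only barcodes at a proportion of ≥10^−7 in both replicates and binders with ≥3 barcodes per replicate were kept, with a 10^−6 pseudocount added before the two replicates were pooled.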
row,Binder,median log2 fold change
1,B1,-0.132
2,B2,0.0664
3,B3,0.184
4,B4,-0.374
5,B5,0.213
6,B6,-0.0152
7,B7,0.326
8,B8,0.0512
9,B9,-0.204
10,B10,0.0755
11,B11,-0.127
12,B12,-0.642
13,B13,0.15
14,B14,0.256
15,B15,0.16
16,B16,-0.047
17,B17,-0.0258
18,B18,0.0973
19,B19,-0.275
20,B20,-0.167
21,B21,0.00193
22,B22,0.31
23,B23,-0.288
24,B24,0.0876
25,B25,0.373
26,B26,0.295
27,B27,0.174
28,B28,-0.154
29,B29,-0.111
